Data from the RNAGym collection of RNA variant scans (doi:10.7554/elife.90254).
The source gives no read counts; variants with many changes may rest on few reads.

B1: LINE1-mini (parent)
chain: GGCAGAGCUCAACACAGCGUGGCAAAGUGGCUGUGGCUAGACUGCC

Variants of: B1
Assay: self-cleavage, relative activity (ratio to wild type); higher = more cleavage; in vitro, sequencing; the parent is a self-cleaving ribozyme

| Variant | self-cleavage |
| --- | --- |
| G30A U32A G40U | 0.03 |
| G29U U34A G35A | 0.04 |
| C23U G30U C31U U32C A41U U43A | 0.1 |
| C10U C37A C45G | 0 |
| G2C A26G G27A G44A | 0.09 |
| C23U U34G G36U | 0.05 |
| A6U G27A C37A | 0.06 |
| A14U G22A A39U | 0.04 |
| U9A U28A G30A C31U G33A G36A | 0.21 |
| C10U A12G U28G G40A | 0.03 |
| C10A U20A G33C G36A G40C | 0.01 |
| C8G A14U G35U | 0.05 |
| G5A G29A C46A | 0.47 |
| C13A A25U U38C | 0.03 |
| U32A G36C C45U | 0.06 |
| A11C A12C G44U | 0 |
| U9G U34G A39U | 0.02 |
| G5C A12G C23G U32G | 0.08 |
| C8G C15A G27C G40U | 0.02 |
| G2U A6U G17U U28G U32A | 0.01 |
| C23U G40U U43A | 0.05 |
| C8U C18G G21U | 0.07 |
| C8G C15G C18U | 0.02 |
| A4U A6G C13U G21U A26C | 0.34 |

| Variant | self-cleavage |
| --- | --- |
| A14U A24G G40C | 0.1 |
| G17A G19C G29C | 0.19 |
| G5U C31A G40A | 0.06 |
| G2C G30U C31U | 0.06 |
| G29C A41C C45A | 0.04 |
| C3A A4U G17C A25G A41G C42G | 0.06 |
| C13U C15G G21U G40A | 0.01 |
| C15A G21A G27U U34C U43C C45G | 0.02 |
| G5A G22A U34A C46U | 0.07 |
| G29C G36U A41U | 0.03 |
| A11U G19C A24G G29U | 0.09 |
| A4C C8G U9A C45G | 0.12 |
| C13A G17U G40U | 0.03 |
| C23G G33A G35U | 0.04 |
| A6C U32G U34G | 0.02 |
| G5C A26C G44U | 0.03 |
| G21U C31A C42A | 0.05 |
| A12G C37A G44A C45U C46G | 0.04 |
| C8U G19U G36C | 0.11 |
| C8A C10G G29A | 0.01 |
| C8U G19C U32C G33A G35A | 0.06 |
| C3A A6U C18A C45G | 0.18 |
| C8U U9A G21C G27U | 0.08 |
| G5C A6C U20G C31A U32A U38A | 0.02 |

| Variant | self-cleavage |
| --- | --- |
| G1U G7C A41G C46A | 0.03 |
| G2U A6C G17A C37A | 0.02 |
| A6C U9A A25G U28A G40A | 0.14 |
| G7A U28G C37A G40C C45U | 0.06 |
| G2A G5C G36U C46A | 0.05 |
| A14U A16G U20G G33A | 0 |
| A4C A11C G17C G30C | 0.02 |
| G1C G7A G22A G29A G40C | 0.02 |
| C8U U32A A41C G44C | 0.1 |
| G21C G22C G30U | 0.54 |
| G5U C13U C23G U38G | 0.02 |
| C23A G30C U34G | 0.52 |
| A12G C13U G21C U34A C46U | 0.02 |
| G1U G2U A4U U9G | 0.05 |
| G5C A14C G21C U32C C45G | 0.06 |
| C10U C13A C15A G33U C37G | 0.03 |
| C10A G35U A39G | 0.05 |
| G7A G29A U34A G35U | 0.2 |
| C10A G22A G30C | 0.1 |
| C13A A26U C42G | 0.31 |
| G21C A39C G44U C45G | 0.02 |
| A12U A16C G22U | 0.02 |
| C3G G7C C8A A16U | 0.48 |
| A11C A16C G29U C45A | 0 |

| Variant | self-cleavage |
| --- | --- |
| A4U U9A A14G U38C A39G | 0.09 |
| A24U G27C C42U | 0.44 |
| C8A A16U G17U | 0.06 |
| U9A A14G C31U | 0.01 |
| G5A A16G G17U G19C G35A G36U U43C C45U | 0.1 |
| G2C G17U U28C U34G G44A | 0.01 |
| G5A G27C G36A G44U | 0.18 |
| G1A G2C C8G C37U | 0.02 |
| C10A A26U C46U | 0.03 |
| A14C A16U G17U U38G A39U G44A | 0.03 |
| G2A A11U A16G G21A G36A | 0.09 |
| G7A C37G A39C | 0.05 |
| G1U C15G G33A G36C G44A | 0.01 |
| C3G G7U U38C | 0.08 |
| A6U C15U G27A U43A | 0.13 |
| C10A C13U U28G G36A A39C | 0.02 |
| A11C A14C G22C | 0.06 |
| U9C G44A C46U | 0.12 |
| C13U G19U C23A G36U C37U C45U | 0.03 |
| A14C G21U G30U G36U | 0.05 |
| C3G U9C C15G A16G A41U | 0.02 |
| G7C C8A A12C U32C A41U C45G | 0.16 |
| C3G A25U U43A | 0.07 |
| G2U C3U G19C G21U C37A A39G | 0.01 |

| Variant | self-cleavage |
| --- | --- |
| A11G C15A G21A C46U | 0.02 |
| G7C G21A G22A U32A C46U | 0.08 |
| A12G C31G U38G | 0.01 |
| C3A G21A A24U G30A G33A U34A U43A | 0.33 |
| C18G G21A C31U | 0.04 |
| G2U G5U C31A C46A | 0.02 |
| G2A C8A A14G | 0.26 |
| G1A C8G A11C C18U G22U C23A | 0.11 |
| G2A U32G G35U | 0.16 |
| G1U G36C C37G | 0.01 |
| G5A C8A U9A U20A G21U G29A G40C | 0.04 |
| G2C C10G A12C U38A A41U | 0 |
| C15U G27A U32C A41C | 0.1 |
| G1A C3A U9G G29C G30A C31A C37A | 0.69 |
| G7C C15G A26C G33U | 0.06 |
| C3U C10A C23U | 0.03 |
| G17U A25G G40U A41C | 0.07 |
| G19A G22C G40A | 0.15 |
| G5U G30U G35U | 0.02 |
| C15U U28G G29A G30C U32G | 0.04 |
| C8G A25C G30A | 0.13 |
| C18G G19C U28C G29A | 1.13 |
| C15A A26U G29U | 0.05 |
| G1U G2C A6U A41U | 0.04 |

| Variant | self-cleavage |
| --- | --- |
| G2C A6U G21A U28C G29A G35A C46A | 0.52 |
| G5A U34C C42A | 0.04 |
| C15U G22C A25G | 0.25 |
| G1C A12U C18G | 0.01 |
| G5A A6C C18A G19A A41G | 0.71 |
| A6G C42U C46A | 0.02 |
| G21C C23U C37U A41U C46G | 0.22 |
| C15G U34G C37G | 0.01 |
| G5A C15U C23U G27C | 0.12 |
| G29U G40U C46G | 0.17 |
| A4C G22U U32G C37A | 0.07 |
| G1A C3G A6U U9A A14U A26G | 0.15 |
| A14G A39C G40U A41C | 0.02 |
| G7A U32G G33C G35A | 0.12 |
| U9A A26U G36A | 0.16 |
| A6U G7C C13A G29U U32C | 0.06 |
| C10U A14C G22U G27U U38C | 0.03 |
| G1A A6G G21C | 0.04 |
| U32G C42A U43C C46A | 0.05 |
| C3U C15U C31A G35U C37G | 0.08 |
| G2A U28G G35U | 0.26 |
| A4U C13G A14G C15A A26U C37G C45G | 0.02 |
| A14G C15A U38C C42G C45A | 0.2 |
| G17A A26C C31A A39G C46G | 0.04 |

| Variant | self-cleavage |
| --- | --- |
| C10G A12U C18A U28C C37U | 0.01 |
| G1C G29U U34C | 0.01 |
| A4G C15A U20C G21U A25G | 0.12 |
| C3A C13G A39G | 0.32 |
| G2A C10U U38C | 0.1 |
| A11G C15G A25U C31G | 0 |
| G22C U34A G36U | 0 |
| G2C C8U C37A | 0.11 |
| A4C A26U G40C | 0.23 |
| C18U C31U C45U | 0.14 |
| C31A G36A C42A | 0.04 |
| G21C G30U U43A C45A | 0.05 |
| C13U U20A G35U | 0.03 |
| G19A C23U G27U U32G | 0.72 |
| C10A A26C C45U C46A | 0.01 |
| G2C G17U G33U C45G | 0.01 |
| C3A G7A G22A | 0.2 |
| C10U A25U C42A | 0.1 |
| C15U G33U U34A | 0.11 |
| G17C A26G G27A | 0.65 |
| C23A C31G C42G | 0.02 |
| A12C C23A U34C G36A | 0.02 |
| C8A U9G C15U U20G U28A A41G | 0.01 |
